In PubChem BioAssay AID1645887 (National Center for Advancing Translational Sciences (NCATS), 2021):
“And” between values parts separate entries of the source, which are not always exact repeats. Equal entries are not always repeated. In all, about 16,000 compounds went through this assay and about 40 (0.2%) were called active. Roughly 1% stayed inconclusive and do not appear here. The call rests on the fitted dose curve; in most records, active means well fitted activation curve with a large enough effect; inconclusive means small, poorly fitted or top-dose-only effect, or another doubt; inactive means no such curve, though single readings can be large or run the other way. The list shows a part of the results.

The molecules below were run against Rap guanine nucleotide exchange factor 4 (Homo sapiens) (UniProt Q8WZA2) (assay: Validation qHTS for agonist of cAMP-regulated guanine nucleotide exchange factor 4 (EPAC2)). Settings: EPAC2 Rap1B BODIPY-GDP exchange, fluorescence; activation: hits give high values.
Chain of UniProt Q8WZA2 (Q8WZA2 whole entry, looked up): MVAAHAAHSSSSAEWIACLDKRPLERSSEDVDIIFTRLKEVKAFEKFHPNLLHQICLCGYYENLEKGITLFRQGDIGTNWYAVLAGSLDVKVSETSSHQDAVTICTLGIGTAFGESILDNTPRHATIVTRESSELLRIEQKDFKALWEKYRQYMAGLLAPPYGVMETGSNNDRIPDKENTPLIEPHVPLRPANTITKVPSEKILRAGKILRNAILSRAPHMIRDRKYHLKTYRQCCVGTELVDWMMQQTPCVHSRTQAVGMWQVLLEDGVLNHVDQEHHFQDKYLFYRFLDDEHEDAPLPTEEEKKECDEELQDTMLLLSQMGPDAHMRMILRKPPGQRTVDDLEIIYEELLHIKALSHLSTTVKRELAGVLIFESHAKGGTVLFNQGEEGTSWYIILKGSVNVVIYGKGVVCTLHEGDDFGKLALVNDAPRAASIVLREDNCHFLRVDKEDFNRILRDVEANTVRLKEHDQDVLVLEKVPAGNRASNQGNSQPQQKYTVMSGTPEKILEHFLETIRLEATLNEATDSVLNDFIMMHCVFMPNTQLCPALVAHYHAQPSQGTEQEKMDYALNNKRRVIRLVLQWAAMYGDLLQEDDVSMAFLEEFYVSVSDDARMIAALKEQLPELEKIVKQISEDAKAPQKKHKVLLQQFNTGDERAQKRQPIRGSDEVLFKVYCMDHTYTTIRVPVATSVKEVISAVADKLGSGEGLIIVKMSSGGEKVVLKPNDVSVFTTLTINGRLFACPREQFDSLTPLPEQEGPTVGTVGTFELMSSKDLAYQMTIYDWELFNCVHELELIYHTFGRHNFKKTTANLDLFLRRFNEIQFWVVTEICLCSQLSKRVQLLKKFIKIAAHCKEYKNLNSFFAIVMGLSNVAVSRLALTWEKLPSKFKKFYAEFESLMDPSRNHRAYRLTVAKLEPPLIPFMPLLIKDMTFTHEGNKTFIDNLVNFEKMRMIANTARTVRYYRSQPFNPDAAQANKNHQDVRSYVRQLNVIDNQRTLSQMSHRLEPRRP
Procedure, shortened: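 Fluorescent exchange assay: 100 nM EPAC2 with 250 nM RAP1B-BODIPY-GDP and 50 uM GDP; compound added, 5 min at room temperature, then read (ex 480/em 540 nm) every 5 min for 30 min. Normalized to 6.5 mM cAMP agonist control.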
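Further: exchange makes BODIPY-GDP fluorescence drop when released from Rap1B; series mostly up to about 150 µM.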
On the % scale 0 is the no-effect control and ±100 the full control effect.

activation, inactive:
OCC(O)C(O)C(O)CO (stereo unspecified) -1.94%
Cc1cccc2cc(CN(C(=O)c3ccc(C(F)(F)F)cc3)C3CC3)c(N3CCC(O)CC3)nc12 -20.5%
COc1cc(CNc2nc(C)c(-c3ccn(C4Cc5ccccc5C4)n3)s2)cc2c1OCO2 13.5%
COc1cccc(Nc2ncc3nc(C)c(=O)n(Cc4cccs4)c3n2)c1 -6.59%
CSc1nnc(CNC(=O)c2cccc3ccccc23)n1-c1ccccc1C -11.2%
O=c1oc2ccccc2cc1O -7.15%
CN(C)CCCN1c2ccccc2C(C)(C)c2ccccc21 -8.74%
COc1cccc(/C=C/C(=O)O)c1C(C)C -6.75%
O=c1c(-c2ccc(F)cc2)nc2cnc(N3CCNCC3)nc2n1C1CC1 0.287%
COc1ccccc1CN1CCCC2(CCN(C(=O)c3csnn3)CC2)C1 -5.89%
O=c1c(-c2ccccc2)c1-c1ccccc1 -4.61%
CCn1c(-c2ccccc2F)nc2cc(C(=O)N3CCNC(=O)C3CC(=O)OC)cc(NC(C)=O)c21 (stereo unspecified) 1.31%
C=C1C(=O)OC2C1CC/C(C)=C/CCC1(C)OC21 (stereo unspecified) -0.461%
O=C1c2ccccc2CCC1CNCCc1ccc(O)cc1 (stereo unspecified) -18.3%
COC(=O)C1OC(=O)C2OC23[C@]2(C)C(O)CC4C(C)(C)C(OC(C)=O)CC(OC(C)=O)[C@@]4(C)C2CC[C@@]13C (stereo partly specified) -9.8% and -50.1%
Cc1cnc(CNc2cc(-c3cccnc3)ncn2)cn1 4.43%
O=C(O)CCc1cc(I)c(O)c(I)c1 -3.33%
Cc1ccc(C(C)C)c(O)c1 -2.95%
COCc1ccc(CN2CCOc3c(O)cc(-c4cc(C)c5ccc(F)cc5n4)cc3C2)o1 8.6%
CC/C=C\C/C=C\C/C=C\CCCCCCCC(=O)O -2.94% and 9.05% and -6.75%
COc1cc(O)c(C(=O)c2ccccc2)cc1O 1.34%
CCn1cc(CN2Cc3ccccc3OC(c3ccccc3OC)C2)c(C)n1 (stereo unspecified) -24.8%
O.O=C([O-])CC([S-])C(=O)[O-].[Au+].[Na+].[Na+] (stereo unspecified) -18.4%
Cn1c(=O)c(-c2ccccc2)nc2cnc(Oc3ccccc3)nc21 0.748%
COc1ccc2[nH]cc(CCNc3ncnc4ccc(-c5c(C)noc5C)cc34)c2c1 9.93%
Cc1noc(C)c1C(=O)N1CCC2(CCCN(C(c3ccccc3)c3ccccc3)C2)CC1 -12%
COc1ccc(CN2CCC3(CCC(CNC(=O)C4CCCO4)O3)CC2)c(C)c1C (stereo unspecified) -3.88%
FC(F)(F)c1ccccc1-c1cncnc1NCc1ccccc1 -7.08%
Cc1ccc(C(=O)N(Cc2cc3cc4c(cc3nc2N2CCOCC2)CCC4)CC2CCCO2)s1 (stereo unspecified) 6.08%
O=C1CCCC2[C@@H]3CCC[N@+]4([O-])CCC[C@H](CN12)C34 (stereo partly specified) -9.87%
C[N+]1(C)CCN(CC(O)(c2ccccc2)C2CCCCC2)CC1 (stereo unspecified) -6.07%
COc1cc(=O)n2c(c1C(=O)NC(C)c1ccco1)CCN(C(=O)c1cc(C)cc(C)c1)CC2 (stereo unspecified) -3.51%
COCC(=O)N1CCC2(CCCN(c3cccc(-c4ccccc4)c3)C2)CC1 -4.35%
CCOCCn1c(N2CCCN(C)CC2)nc2ccccc21 3.02%
COc1ccc(OC)c(-c2cc(Cl)c3c(c2)CC(CNC(=O)c2coc4c2C(=O)CCC4)O3)c1 (stereo unspecified) 4.71%
Cc1ccccc1CN1[C@H]2CCCC[C@@H]2OCCS1(=O)=O -11.5%
COCCn1c(=O)c(C)nc2cnc(Oc3ccc(OC)cc3)nc21 -3.69%
O=C(c1cnccn1)N1CCC2(CC1)CN(c1ccncc1)C2 7.9%
O=S(=O)(c1cccc2c(Cl)cccc12)N1CCCNCC1 -12.1% and -7.89% and -23.1%
CCCc1c(OCCCOc2ccc(OCC(=O)O)cc2)ccc(C(C)=O)c1O -57.2%
COc1ccc2[nH]cc(CCNc3ncnc4ccc(-c5ccccc5C#N)cc34)c2c1 2.83%
O=C1CC2(CCCC2)CC(=O)N1CCCCNCC1COc2ccccc2O1 (stereo unspecified) 0.718%
CC1=C(C(=O)O)N2C(=O)[C@@H](NC(=O)[C@H](N)c3ccccc3)[C@H]2SC1 -1.92%
COc1cccc(C(=O)NCC2Cc3cccc(-c4nc(C)cnc4C)c3O2)c1OC (stereo unspecified) -1.46%
CSc1ccccc1C(=O)NCC1Cc2cc(F)cc(-c3cnccn3)c2O1 (stereo unspecified) -20.6%
NC(N)=[N+]1CCc2ccccc2C1 -25.6%
Cc1noc(C)c1-c1cncnc1NCc1cccnc1 -20.9%
O=C1CCC[C@@H]2C[C@@]3(C[C@@H]4CCN1[C@H]24)Nc1ccccc1NC3=NC1CCCCC1 -10.5%
CC[C@H](C)C(=O)O[C@H]1C[C@H](O)C=C2C=C[C@H](C)[C@H](CC[C@@H](O)C[C@@H](O)CC(=O)O)[C@H]21 7.96%
Cc1cccn2c(=O)c(-c3nnn[nH]3)cnc12 2.42%
COc1cc2nc(N(C)C)c(CNCc3cccc4ccccc34)cc2c(OC)c1OC -13.9%
COc1ccccc1-c1ccc(C(=O)N(C)C(C)c2ccon2)c(N2CCN(c3ccccc3F)CC2)n1 (stereo unspecified) -23.4%
C=C1C(=O)OC2CC1C(OC(C)=O)CC(C)=CCCC(C)=CCC[C@@]2(C)O (stereo partly specified) -9.58%
Cc1ccc(S(=O)(=O)/C=C/C#N)cc1 4.92% and -22.1%
O=C(/C=C/c1ccc(O)cc1)c1c(O)cc(O)cc1O -3.54%
CCCn1c(=O)c2[nH]c(-c3ccc(OCC(=O)NCCN)cc3)nc2n(CCC)c1=O -100%
